Out of some 310,000 compounds screened, about 2,200 (0.71%) showed an effect of 50% or more. The effect is printed as a negative number. This is one part of the list.
Each compound was assayed against human ether-à-go-go-related gene (hERG) potassium channel (human, UniProt Q12809) (assay: primary screen, population patch clamp on CHO cells stably expressing hERG).
Sequence of human ether-à-go-go-related gene (hERG) potassium channel (Q12809 whole entry, looked up): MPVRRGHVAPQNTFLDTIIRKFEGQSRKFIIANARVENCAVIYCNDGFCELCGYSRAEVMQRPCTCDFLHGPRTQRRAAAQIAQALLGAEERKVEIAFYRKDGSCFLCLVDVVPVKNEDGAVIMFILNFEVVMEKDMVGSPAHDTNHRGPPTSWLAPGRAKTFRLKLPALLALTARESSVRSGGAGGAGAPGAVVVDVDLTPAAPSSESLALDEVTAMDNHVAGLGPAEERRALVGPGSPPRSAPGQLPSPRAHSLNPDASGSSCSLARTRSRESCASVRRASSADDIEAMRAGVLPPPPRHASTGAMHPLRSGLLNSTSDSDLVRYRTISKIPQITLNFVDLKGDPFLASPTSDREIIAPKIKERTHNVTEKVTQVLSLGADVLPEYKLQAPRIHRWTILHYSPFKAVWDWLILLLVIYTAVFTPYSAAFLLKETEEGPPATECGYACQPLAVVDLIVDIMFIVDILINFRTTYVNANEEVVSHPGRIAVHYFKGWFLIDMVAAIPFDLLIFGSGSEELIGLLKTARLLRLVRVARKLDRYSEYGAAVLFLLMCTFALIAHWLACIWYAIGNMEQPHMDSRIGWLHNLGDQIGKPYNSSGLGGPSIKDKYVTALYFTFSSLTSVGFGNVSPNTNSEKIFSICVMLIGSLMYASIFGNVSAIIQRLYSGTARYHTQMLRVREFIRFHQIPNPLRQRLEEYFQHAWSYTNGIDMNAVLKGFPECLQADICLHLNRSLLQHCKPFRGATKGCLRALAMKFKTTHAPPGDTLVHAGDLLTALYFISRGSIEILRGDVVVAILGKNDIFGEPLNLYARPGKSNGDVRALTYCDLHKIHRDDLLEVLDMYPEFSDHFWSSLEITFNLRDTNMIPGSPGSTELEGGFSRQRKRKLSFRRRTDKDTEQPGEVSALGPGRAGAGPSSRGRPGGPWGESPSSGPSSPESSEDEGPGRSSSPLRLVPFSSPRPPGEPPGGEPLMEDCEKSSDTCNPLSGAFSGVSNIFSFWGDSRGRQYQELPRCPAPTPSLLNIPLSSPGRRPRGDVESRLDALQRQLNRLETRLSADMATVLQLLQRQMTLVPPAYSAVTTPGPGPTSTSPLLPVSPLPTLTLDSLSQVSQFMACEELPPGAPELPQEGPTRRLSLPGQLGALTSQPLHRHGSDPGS

First: COc1cc(C(=O)n2nc(C)cc2C)ccc1O
Second: Cc1cc(O)c(C(C)C)cc1N=Nc1ccccc1C(=O)O
The “hERG current change (%, negative = inhibition) at 1uM” value of the first is lower: 0.889% for the first, 3.07% for the second.

First: Cc1ccc(CC(=O)N/N=C/c2ccc(OC(=O)c3ccc([N+](=O)[O-])cc3)cc2)cc1
Second: CC(=O)Nc1ccc([As](=O)(O)c2ccc([N+](=O)[O-])cc2)cc1
The “hERG current change (%, negative = inhibition) at 1uM” value of the first is higher: 13% for the first, -0.171% for the second.

Going from `N#Cc1c(N)sc2c1CCN(C(=O)OCc1ccccc1)C2` to `CC(=O)c1cn(Cc2ccccc2)c(=O)[nH]c1=O`, the “hERG current change (%, negative = inhibition) at 1uM” value falls from 8.19% to 6.88%.

Going from `Cc1cccc(NC(=O)c2ccc(S(=O)(=O)NCc3cccnc3)cc2)c1C` to `Cc1cc(O)c(S(=O)(=O)c2ccccc2)c(C)c1NS(=O)(=O)c1ccccc1`, the “hERG current change (%, negative = inhibition) at 1uM” value falls from 8.4% to 5.39%.

First: COC(=O)C1=CN(CC2CCCO2)C=C(C(=O)OC)C1c1ccsc1 (centres unmarked)
Second: COC(=O)c1cccc(NC(=O)CCSc2ccc(Cl)cc2)c1C
The “hERG current change (%, negative = inhibition) at 1uM” value of the first is lower: 3.52% for the first, 13.8% for the second.

Going from `CCOc1ccc(C2c3[nH]c4ccccc4c3CCN2Cc2cn(CC)nc2C)cc1` (centres unmarked) to `CC1(CCc2ccc3c(c2)OCO3)NCCc2c1[nH]c1ccccc21.Cl` (centres unmarked), the “hERG current change (%, negative = inhibition) at 1uM” value rises from -13.1% to -10.8%.

First: Nc1nc(Cn2nnc(-c3ccccc3F)n2)nc(N2CCOCC2)n1
Second: Cc1nn(CC(=O)N2CCN(C)CC2)c(=O)c2c1sc1ccccc12
The “hERG current change (%, negative = inhibition) at 1uM” value of the first is lower: -53.8% for the first, 4.18% for the second.

Going from `CC(C)Sc1nnc(NC(=O)c2ccco2)s1` to `CC(C)c1c(C(=O)N/N=C/c2ccoc2)nnn1-c1nonc1N`, the “hERG current change (%, negative = inhibition) at 1uM” value rises from -4.29% to 8.01%.

Going from `Cc1cc(C)cc(OCC(=O)Nc2nc3ccc([N+](=O)[O-])cc3s2)c1` to `CC(C)(C)n1nc2c(c1NC(=O)COc1ccc3ccccc3c1)CS(=O)C2` (centres unmarked), the “hERG current change (%, negative = inhibition) at 1uM” value rises from 11.2% to 14.7%.

Going from `NC1=NC(=Nc2cccc(Cl)c2)c2ccccc21` to `CCOc1ccc(Cl)cc1CNCCc1ccccc1F.Cl`, the “hERG current change (%, negative = inhibition) at 1uM” value falls from 14.4% to 3.82%.

Compared with `COC(=O)c1c(NC(=O)CN2C(=O)C(=O)N(C(C)C)C2=O)sc(C)c1C`, `CCOC(=O)C1=C(C)SC2=NS(=O)(=O)CCN21` is higher in “hERG current change (%, negative = inhibition) at 1uM” value: 11.6% for the first, 14.7% for the second.

First: COc1ccccc1NC(=O)/C=C/C(N)=O
Second: O=C1NCCCC1C(=O)Nc1ccccc1C(F)(F)F (centres unmarked)
The “hERG current change (%, negative = inhibition) at 1uM” value of the first is higher: 13.2% for the first, 3.93% for the second.

Compared with `CSC1=NC(C(Cl)(Cl)Cl)N=C(c2ccccc2)N1` (centres unmarked), `CCCCCc1ccc(-c2cn(CCCOCc3ccccc3)nn2)cc1` is lower in “hERG current change (%, negative = inhibition) at 1uM” value: 10.3% for the first, 7.45% for the second.

Compared with `CCOC(=O)CSc1nnc(C)c(=O)[nH]1`, `CCOC(=O)C(=CNc1cc(C)ccc1C)C(=O)OCC` is lower in “hERG current change (%, negative = inhibition) at 1uM” value: 14.3% for the first, 7.01% for the second.

Compared with `CCCCCC(=O)Nc1cccc(S(=O)(=O)NC2=NCCCCC2)c1`, `O=C(Nc1cc2c3c(c1)CC(=O)N3CCC2)c1cccc(F)c1` is lower in “hERG current change (%, negative = inhibition) at 1uM” value: 1.44% for the first, 0.498% for the second.

Going from `Nc1c(C(=O)Nc2ccccc2)sc2nc3c(c(-c4ccco4)c12)CCC3` to `CCN1CCc2nc(NC(=O)C(c3ccccc3)c3ccccc3)sc2C1`, the “hERG current change (%, negative = inhibition) at 1uM” value falls from 13% to 3.73%.

Compared with `COc1ccc(CCNC(=O)CSc2nnc3c(n2)[nH]c2ccc(F)cc23)cc1OC`, `Cc1cnc(C(=O)NCc2ccc(F)cc2)cn1` is higher in “hERG current change (%, negative = inhibition) at 1uM” value: 5.3% for the first, 14.1% for the second.

Compared with `CCn1c(C)c(C(C)=O)c(N2CCC(C(N)=O)CC2)nc1=S`, `NC(=O)[C@@H]1CCCN1C(=O)c1cc(COc2ccc(F)cc2F)on1` is higher in “hERG current change (%, negative = inhibition) at 1uM” value: 13.2% for the first, 19% for the second.

First: COc1ccccc1N1CCN(C2CCCN(C(=O)CCn3cncn3)C2)CC1 (centres unmarked)
Second: Nn1c(SCC(=O)N2CCc3ccccc3C2)nnc1-c1cccs1
The “hERG current change (%, negative = inhibition) at 1uM” value of the first is higher: 7.68% for the first, -2.06% for the second.

First: CC(C)(C)c1ccc(C(=O)Oc2ccc3c(c2)OCC3=O)cc1
Second: O=C1COc2ccc(S(=O)(=O)N3CCC(C(=O)NCc4ccc(F)cc4)CC3)cc2N1
The “hERG current change (%, negative = inhibition) at 1uM” value of the first is lower: 7.97% for the first, 14.7% for the second.

First: Nc1ncccc1OCc1cccc(C(F)(F)F)c1
Second: O=C(NC1CCCC1)C(c1cccnc1)N(C(=O)c1csnn1)c1ccc(F)cc1 (centres unmarked)
The “hERG current change (%, negative = inhibition) at 1uM” value of the first is higher: 0.817% for the first, 0.77% for the second.

Going from `CCOc1ccc2c(C)c(Cl)c(=O)oc2c1` to `CC(=O)c1cc2c(cc1NC(=O)CCNC(=O)c1ccccc1Cl)OCO2`, the “hERG current change (%, negative = inhibition) at 1uM” value falls from 6.1% to 4.36%.
